# Data from the antibiotic and cytotoxicity screens of Wong et al. (2023).
# The other results are listed elsewhere or left out.
# Tests used:
# HSkMC = human skeletal muscle cells; assay: cytotoxicity call (relative viability < 0.9); conditions: 10 µM
# HepG2 = assay: cytotoxicity call (relative viability < 0.9); conditions: 10 µM
# S. aureus RN4220 = assay: growth inhibition call (relative growth <= 0.2); conditions: 50 µM
Compound,cytotoxicity call (HSkMC),cytotoxicity call (HepG2),growth inhibition call (S. aureus RN4220)
Cc1noc(C)c1NC(=O)N(C)C[C@H]1Oc2ccc(NC(=O)Nc3ccc(C(F)(F)F)cc3)cc2CC(=O)N([C@@H](C)CO)C[C@@H]1C,inactive,inactive,inactive
NCc1cccc(Cn2cccn2)c1,inactive,inactive,inactive
COc1cccc(S(=O)(=O)N(C)C[C@H]2Oc3cc(C#CCC(C)C)ccc3S(=O)(=O)N([C@@H](C)CO)C[C@@H]2C)c1,inactive,inactive,inactive
CC(=O)OC[C@@H](OC(C)=O)[C@H](OC(C)=O)[C@H](OC(C)=O)[C@H](OC(C)=O)[C@@H](COC(C)=O)OC(C)=O,inactive,inactive,inactive
O=C(NCCN1CCOCC1)C(=O)Nc1cc2c3c(c1)CCN3C(=O)CC2,inactive,inactive,inactive
C[C@H]1CCCCO[C@H](CN(C)CC2CC2)[C@@H](C)CN([C@@H](C)CO)C(=O)c2cc(NS(C)(=O)=O)ccc2O1,inactive,inactive,inactive
O=S1(=O)C[C@H](O)[C@@H](N2CCN(CCO)CC2)C1,inactive,inactive,inactive
C[C@@H]1CN([C@H](C)CO)C(=O)c2cc(NC(=O)Nc3ccc(C(F)(F)F)cc3)ccc2O[C@@H](C)CCCCO[C@@H]1CN(C)S(=O)(=O)c1ccc(Cl)cc1,inactive,inactive,inactive
COc1ccc(S(=O)(=O)N(C)C[C@H]2Oc3c(NS(=O)(=O)c4cn(C)cn4)cccc3C(=O)N([C@@H](C)CO)C[C@H]2C)cc1,inactive,inactive,inactive
COc1ccc(NC(=O)Nc2ccc3c(c2)C(=O)N([C@@H](C)CO)C[C@H](C)[C@@H](CN(C)Cc2ccc(C(F)(F)F)cc2)OCCCC[C@@H](C)O3)cc1,inactive,active,inactive
